Drawing on PubChem BioAssay AID1346428 (National Center for Advancing Translational Sciences (NCATS), 2018), this text covers activation for 83 compounds.

“And” between values parts separate entries of the source, which are not always exact repeats. Equal entries are not always repeated. Out of some 48,000 compounds screened, about 1,200 (2.5%) were called active. About 2% were inconclusive and are not listed.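 How the source made its calls: active means activation of at least 60% and not above a set upper limit (about 1 call in 100 departs from these limits); inconclusive means activation of 40% to 60%, or above that upper limit; inactive means activation under 40%.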 This is one part of the list.

Sequence of UniProt O75388 (O75388 whole entry, looked up): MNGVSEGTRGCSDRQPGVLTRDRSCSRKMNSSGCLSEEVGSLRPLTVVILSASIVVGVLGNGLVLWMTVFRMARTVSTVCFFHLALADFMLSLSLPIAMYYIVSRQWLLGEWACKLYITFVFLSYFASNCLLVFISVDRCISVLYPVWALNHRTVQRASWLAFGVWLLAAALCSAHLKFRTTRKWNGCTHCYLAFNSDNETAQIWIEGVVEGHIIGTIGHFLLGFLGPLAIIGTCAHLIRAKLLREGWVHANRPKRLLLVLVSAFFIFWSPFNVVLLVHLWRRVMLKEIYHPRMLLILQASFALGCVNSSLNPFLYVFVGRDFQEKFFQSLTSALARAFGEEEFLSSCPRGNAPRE

The target of this assay is Probable G-protein coupled receptor 32 (Homo sapiens) (UniProt O75388). The assay can be described thus: qHTS for Agonists of Human Resolvin D1 Receptor DRV1. Further: 0% is about no effect. The settings on record: CHO-K1 GPR32 beta-arrestin PathHunter luminescence, 90 min; at 76.9 µM; hits give high values; zero percent set by DMSO-only wells. In outline:
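CHO-K1 cells stably expressing ProLink-tagged GPR32 and Enzyme Activator-tagged beta-arrestin were seeded at 2,500 cells/well overnight, exposed to compounds for 90 min at 37 °C, then read by beta-Gal complementation chemiluminescence after 1 h detection reagent.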
Background: Quantitative high-throughput screening tests each substance at several concentrations.
Consider `COc1ccc(NC(=O)C(c2ccccc2)N(C)C(=O)/C=C\c2ccc3c(c2)OCO3)cc1` (stereo not drawn), for which the activation is inactive: -27.8%.

`Cc1cn2c(=O)c(S(=O)(=O)Nc3ccc(OC(F)(F)F)cc3)c(C)nc2s1`: the activation is inactive: 16.9%.

`COc1ccc(-c2noc(CSc3nnc(C)n3-c3ccc(F)cc3)n2)cc1`: the activation is inactive: -0.748%.

Consider `COc1ccc(C(CC(=O)Nc2cc(Cl)c(OC)cc2OC)N2Cc3ccccc3C2=O)cc1` (stereo not drawn), for which the activation is inactive: -26.4%.

As to `COc1ccc(-c2c(C)nn3c(C(F)(F)F)cc(-c4ccc(C)cc4)nc23)cc1`, the activation is inactive: -8.13%.

`CCOc1ccc(C(=O)Nc2ccc3nc(Nc4cccc(C(F)(F)F)c4)cc(C)c3c2)cc1OCC`: the activation is inactive: 10.5%.

Regarding `Cc1ccccc1OCC(=O)Nc1c(C(=O)Nc2ccccc2F)oc2ccccc12`, the activation was inactive: 2.94%.

For the compound `CC(=O)NNc1ncnc2c1cnn2-c1ccccc1`, the activation is inactive: 0.0923%.

Regarding `CCOc1ccc(NC(=O)N2CC3CCCN3c3ccccc32)cc1` (stereo not drawn), the activation was inactive: -4.33%.

With `Cc1ccccc1NS(=O)(=O)c1ccc2[nH]cc(C(=O)NCCc3ccccc3)c(=O)c2c1`, the activation was inactive: -12.5%.

For `COC(=O)c1cnc(N2CCN(c3ccc(OC)cc3)CC2)c2ccccc12`, the activation is inactive: -22.9%.

Take `CCCN(C(=O)c1cn(C)c(=O)c2cc(OC)c(OC)cc12)c1ccc(CC)cc1`: the activation was inactive: -13%.

For `COc1ccc(NC(=O)C2=CC(c3ccco3)=NS(=O)(=O)N2C)cc1OC`, the activation was inactive: -12.4%.

Regarding `CCc1ccccc1NC(=O)CCCSc1nc(-c2ccco2)cc(C(F)(F)F)n1`, the activation was inactive: -12%.

Regarding `CCOCCc1nn2c(=O)cc(COC(=O)c3ccc(NC(=O)C4CCCCC4)cc3)nc2s1`, the activation was inactive: 18.8%.

With `COc1cc(C)c(Cc2cnc(N)nc2N)cc1OC`, the activation was inactive: -39.8%.

Regarding `CCN(c1ccccc1)S(=O)(=O)c1nnc(NC(=O)c2ccccc2OC)s1`, the activation is inactive: 2.68%.

Take `O=C(CS(=O)(=O)c1cccc2nsnc12)N1CCN(c2ccccc2F)CC1`: the activation is inactive: -15.1%.

Take `Cc1cc(NC(=O)c2ccc3c(c2)N(Cc2cccc(Cl)c2)C(=O)c2ccccc2S3(=O)=O)ccc1Br`: the activation is inactive: -1.33%.

As to `COc1ccccc1CNc1nc2ccc(C)cc2n2nnnc12`, the activation is inactive: -10.1%.

For the compound `Cc1nn(-c2ccccc2)c(OC(=O)c2ccccc2Br)c1S(=O)(=O)c1ccccc1`, the activation was inactive: 34.5%.

As to `CC1=C(C(=O)Nc2ccccc2Cl)C(c2cccc(O)c2)n2ncnc2N1` (stereo not drawn), the activation is inactive: -4.58%.

`O=C1CC(c2c(Cl)cccc2Cl)c2c(ccc3ccccc23)N1` (stereo not drawn): the activation was inactive: 20.3%.

With `O=C(Nc1ccccc1C(F)(F)F)c1ncoc1-c1ccco1`, the activation is inactive: -9.77%.

In the case of `COc1cc(C2C(=O)N(C3CCCCC3)CC(=O)N2CCc2ccccc2)ccc1OC(C)C` (stereo not drawn), the activation was inactive: -13%.

For the compound `CCCCN(C)CCCNC(=O)C1CCN(S(=O)(=O)CCC)CC1`, the activation is inactive: 0.498%.

For `COc1ccc(CNC(=O)c2cc(Nc3ccccc3C)nc3ccccc23)cc1`, the activation was inactive: -14.3%.

Take `CCN(CC)c1ccc(CNCCCSc2nnnn2C)cc1`: the activation was inactive: 3.62%.

`COc1ccc(Cl)cc1NC(=O)CSc1cn(CC(=O)N2CCCCC2)c2ccccc12`: the activation is inactive: -15%.

Consider `CCOc1ccc(CN2C(=O)c3ccccc3Sc3ccc(C(=O)NCc4ccco4)cc32)cc1`, for which the activation is inactive: -27.9%.

Turning to `Cc1oc(-c2cccc(Cl)c2)nc1CN1CCC(C(=O)NC(C)c2ccccc2)CC1` (stereo not drawn), the activation is inactive: 6.77%.

For `C[C@H]1C[C@H](O)c2ccsc2S1(=O)=O`, the activation is inactive: -8.17%.

As for `COCCNc1nc2c(c(=O)n(C)c(=O)n2C)n1Cc1c(F)cccc1Cl`, the activation was inactive: 18.5%.

On to `Cc1oc2ncn(C)c(=O)c2c1C(=O)N1CCN(c2cccc(C(F)(F)F)c2)CC1`, for which the activation is inactive: -5.92%.

In the case of `CC1CCN(C(c2ccccc2)c2sc3nc(-c4ccco4)nn3c2O)CC1` (stereo not drawn), the activation is inactive: -17.4%.

For the compound `O=C(CSc1nc(-c2ccccc2)cn1-c1ccccc1F)Nc1ccc(F)cc1`, the activation was inactive: -25.5%.

For the compound `COc1ccc(CNS(=O)(=O)c2cc3c(cc2Cl)N(C(C)=O)CCO3)cc1`, the activation was inactive: 4.31%.

Consider `COc1ccc(NC(=O)CSc2nc(-c3cc(OC)c(OC)c(OC)c3)[nH]c2-c2ccc(F)cc2)cc1`, for which the activation is inactive: -18.9%.

On to `Cc1ccc(Nc2cc(C(=O)NCCc3ccccc3)c3ccccc3n2)c(C)c1`, for which the activation was inactive: 28.9%.

For the compound `COc1cc(NC(=O)CN2CCN(S(=O)(=O)c3ccc(Br)cc3)CC2)cc(OC)c1`, the activation was inactive: -2.38%.

Turning to `O=C(Cn1nc(-c2ccc(Cl)cc2)c2ccccc2c1=O)Nc1cccc(Br)c1`, the activation is inactive: -0.674%.

`CCCOC(=O)c1cccc(NC(=O)c2c(-c3ccccc3Cl)noc2C)c1`: the activation is inactive: -24.6%.

For `CCCCC(=O)Nc1c(C(=O)N2CCN(c3ccccc3F)CC2)oc2ccccc12`, the activation was inactive: -34.4%.

`O=C(Nc1cccc(F)c1)C1CCCN(S(=O)(=O)c2cccc3cccnc23)C1` (stereo not drawn): the activation is inactive: 10.9%.

Regarding `COc1ccc(CNC(=O)C2CCN(c3nnc(-n4c(C)ccc4C)s3)CC2)c(OC)c1`, the activation is inactive: -21.7%.

Consider `Cc1cccc(C2CN(C)CCc3c2cc(O)c(O)c3Cl)c1` (stereo not drawn), for which the activation is inactive: 2.98%.

With `Cc1nc2ccc(S(=O)(=O)N(C)CC(=O)Nc3ccc(C(C)C)cc3)cc2s1`, the activation was inactive: -7.43%.

With `Cc1ccccc1Cn1c(COc2ccc(Cl)cc2)nc2ccccc21`, the activation is inactive: -9.78%.

Consider `CC1CCN(S(=O)(=O)c2ccc3c(c2)c(=O)c(C(=O)N2CCN(c4cccc(Cl)c4)CC2)cn3C)CC1`, for which the activation is inactive: -5.82%.

Regarding `Cc1ccc(-n2ncc(C(=O)NCCN3CCc4ccccc4C3)c2C2CCN(C(=O)OC(C)(C)C)CC2)cc1C`, the activation was inactive: -31.5%.

As to `COc1ccc(NC(=O)CN2CCN(CC(=O)Nc3ccccc3F)CC2)c(OC)c1`, the activation is inactive: -15.5%.

With `O=c1c2cc3c(cc2nc2sc(Nc4ccccc4)nn12)OCO3`, the activation is inactive: -3.77%.

As to `Cc1cccc(C)c1NC(=O)CN1CCN(CCCC(c2ccc(F)cc2)c2ccc(F)cc2)CC1`, the activation is inactive: -10.3%.

In the case of `COc1ccc(-c2nc(SCC(=O)NC(C)CCc3ccccc3)n[nH]2)cc1` (stereo not drawn), the activation is inactive: 17.3%.

Take `Cc1nc(N=Nc2cc(S(=O)(=O)O)c3cc([N+](=O)[O-])cc(S(=O)(=O)O)c3c2)c(COP(=O)(O)O)c(C=O)c1O`: the activation is inactive: -22.6%.

With `COc1ccc(S(=O)(=O)c2c(Nc3cccc(C)c3C)sc(C(=O)c3ccccc3)c2N)cc1`, the activation is inactive: -30.4%.

For the compound `COC(=O)c1ccc(NC(=O)CSc2cn(CC(=O)N3CCCCC3)c3ccccc23)cc1`, the activation is inactive: 2.22%.

For the compound `CCN(c1ccccc1)S(=O)(=O)c1c(C)nc2scc(C)n2c1=O`, the activation is inactive: -3.06%.

`COc1ccc(N2CCN(c3ncnc4c3cnn4-c3ccc(F)cc3)CC2)cc1`: the activation was inactive: -11%.

With `CCOC(=O)c1c(C)oc2nc(C)nc(NCCc3ccc(OCC)c(OCC)c3)c12`, the activation is inactive: -20.7%.

On to `COc1ccc(C(=O)NCC(c2ccc3c(c2)OCO3)N2CCN(C)CC2)cc1` (stereo not drawn), for which the activation was inactive: 5.54%.

With `O=S(=O)(c1ccc(F)cc1)N(CC(O)Cn1c2ccccc2c2ccccc21)c1ccccc1` (stereo not drawn), the activation is inactive: 19.9%.

`CCOc1ccc(CCNC(=O)c2nnc(Cc3ccc(Cl)cc3Cl)o2)cc1OCC`: the activation is inactive: -3.04%.

For `COc1cc(OC)c(N(C)C(=O)c2c(C)oc3ncnc(N4CCCCC4)c23)cc1Cl`, the activation was inactive: -6.56%.

For the compound `COc1ccc(CNC(=O)C2CCCN(S(=O)(=O)c3ccc4c(ccn4C)c3)C2)c(OC)c1` (stereo not drawn), the activation is inactive: -18.6%.

On to `Cc1ccc2c(=O)cc(C(=O)NCc3ccccc3)oc2c1`, for which the activation was inactive: 44.2%.

For the compound `CCOc1ccc2nc(N3CCN(C(=O)c4ccco4)CC3)sc2c1`, the activation is inactive: 21.4%.

For `CCn1cc(/C=C(\NC(=O)c2ccc(C)cc2)C(=O)NCCCn2ccnc2)c2ccccc21`, the activation was inactive: 26.6%.

Turning to `CCOC(=O)c1cc2c(=O)n3ccccc3nc2n(CC2CCCO2)c1=NC(=O)c1ccccc1C` (stereo not drawn), the activation was inactive: -1.99%.

Take `COc1ccc(NC(C)=O)cc1NC(=O)C1(c2cccs2)CCOCC1`: the activation was inactive: -12.4%.

As for `Cc1ccc(C)c(N2CCN(C(=O)Cc3c(C(=O)O)c(C)cn3C)CC2)c1`, the activation is inactive: -4.29%.

In the case of `Cc1cc(C)cc(-n2c(SCC(=O)N3CCC(C)CC3)nc3c([nH]c4ccccc43)c2=O)c1`, the activation was inactive: -7.11%.

Regarding `CCc1ccc(-n2nc(CO)c(C(=O)NCCc3ccccc3)n2)cc1`, the activation was inactive: -5.6%.

As for `O=C(CSc1nc2c([nH]c3ccccc32)c(=O)n1-c1ccc(F)cc1)N1CCc2ccccc21`, the activation was inactive: -4.86%.

`COc1cccc(C(=O)N2CCCCC2CCN2CCCCC2)c1` (stereo not drawn): the activation was inactive: -12.9%.

As to `Cc1oc(-c2ccccc2F)nc1CS(=O)CC(=O)NC(C)C` (stereo not drawn), the activation is inactive: 3.02%.

Turning to `CC/C=C(\C(=O)N[C@@H]1C(=O)N2C(C(=O)OCOC(=O)C(C)(C)C)=C(COC(N)=O)CS[C@H]12)c1csc(N)n1`, the activation is inactive: 14.1% and inactive: -24.3%.

In the case of `Cc1cccc(Cn2c(CNS(=O)(=O)c3ccc(C(C)C)cc3)nc3cccnc32)c1`, the activation was inactive: -26.3%.

Regarding `COc1ccc(OC)c(NC(=O)c2cccc3c2C(=O)N(C2CCCCC2)C3)c1`, the activation was inactive: -2.72%.

On to `CCc1ccc(NC(=O)CC2C(=O)NCCN2C(=O)c2ccc(F)cc2)cc1` (stereo not drawn), for which the activation is inactive: -11.8%.

Regarding `COc1ccc(S(=O)(=O)c2c(Nc3ccccc3F)sc(C(=O)c3cccc(OC)c3)c2N)cc1`, the activation is inactive: -45.1%.

For `CCc1ccc(NC(=O)NCCc2c(C)nn(C)c2C)cc1`, the activation was inactive: -3.06%.

Turning to `CSc1ccc(C2C(C(=O)Nc3ccccc3)=C(C)Nc3nc4ccccc4n32)cc1` (stereo not drawn), the activation is inactive: 11.1%.
